Experimental data from the supplement of paper PMC11417369.
The list shows a part of the results.

System: PfAP2-HC AP2 domain (GST-tagged)
Experiment: gcPBM binding intensity (ln(normalized median fluorescence intensity)); higher = stronger DNA binding
Summary of the method: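 Binding intensity is defined as the maximum Masliner-normalised natural-log median intensity across replicate spots for either probe orientation. It was measured on an Agilent 4 × 180k array of primer-extended double-stranded 36-bp intergenic genomic probes and negative controls, to which GST-tagged P. falciparum DNA-binding domains made in E. coli were applied for 1 h in 1× PBS with 1% milk, 0.2 mg/ml BSA, 0.5% salmon testes DNA and 0.03% Triton X-100. Detection was by Alexa488 anti-GST antibody and scanning at 488 nm.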

| Sequence | gcPBM binding intensity (ln) |
| --- | --- |
| TTTTTTTTTCCTTTTTTTTAAATATTAAAAATGGGA [TGCATGCA_negctrl_site494] | 9.25 |
| TTTTACATCATATATAGTACATATATTATACATATA [XGTACX_site8590] | 9.66 |
| TATATATATATAAGTAGTACAATAATATATTATTTT [XGTACX_site6450] | 9.75 |
| AATATAATATTATATAGTACATATTTCTTTTATTTT [XGTACX_site22] | 9.68 |
| TCTTGATACAAACATTTAAATAAATAAATAAAAAAA [GTGCAC_negctrl_site41] | 9.32 |
| AAAATACACGCATACACACACACACCGACACATATA [CACACA_site4523] | 10.7 |
| TGTTGTGATATATTAAAATCGTCCCTTATAATTTTA [GTGCAC_negctrl_site595] | 9.44 |
| TAATATTATATTTATAGTACATATAATATATATATA [XGTACX_site2964] | 9.44 |
| GAACACTAATAATGTTGTACACGTAATTATATATTT [XGTACX_site777] | 9.82 |
| AAACACACACACAAATGTACATATATATATATATTT [XGTACX_site5090] | 10.3 |
| ATATATTTTCATTTTACACACAAATAAAGATAATTT [CACACA_site2996] | 9.76 |
| AAAATAAATAAAAAAAGTACATATATAATTTATAAA [XGTACX_site2411] | 9.78 |
| TAAATTAATAAAAAGTGTACATAATATACATATATA [XGTACX_site8604] | 9.76 |
| TACAATACCGTACAGGTGCAACTAGCCAAAAAAAAG | 9.75 |
| ATAATTAAAAAAGGAATATATATATATATATATATA [GTGCAC_negctrl_site343] | 9.46 |
| CGTATGACATAATATTGTACTTTTGATATACATCAT [XGTACX_site7366] | 9.58 |
| TTTAATAATATTTAGGTGCTATATATTATATGTATA | 9.52 |
| AAACAAAAAAGAAACACACACTAATTAAATTTTCTT [CACACA_site4746] | 10 |
| TATTAAAGATACTCGGTATAAATAAATTTTAATGTG [XGTACX_negctrl_site239] | 9.63 |
| AAGTGGCATATAAGTAAAAAATATATACAAGTATAT [GTGCAC_negctrl_site427] | 9.56 |
| CTCAATATATTTGATTTACACACTTACAATGTATAT [CACACA_site8982] | 9.88 |
| ATGCTTATTATTTATTGTACTGAATAAATATATCTG [XGTACX_site4483] | 9.69 |
| ACAACATGCACACGCACACACAAAAAAAGCATGCAT [CACACA_site6185] | 10.3 |

| Sequence | gcPBM binding intensity (ln) |
| --- | --- |
| TATAAAAAATATAATTGTACATAAAGGTTAAAATGT [XGTACX_site6138] | 9.73 |
| TTATTTCTACCTTTTTGTACACATTATTATGAAACC [XGTACX_site5325] | 9.84 |
| ATAAATCATAAGGAGAGTACATAAATAAAATAATCA [XGTACX_site8825] | 9.74 |
| TATATATGGAAAAGGTGTACATTCAATATATATATA [XGTACX_site3167] | 9.62 |
| CTATAATATAGGTATACACACATATTATAGAATATT [CACACA_site7696] | 9.79 |
| ATATAAAATAGACACGCACACAAAAAAAAAAAAAAA [CACACA_site3522] | 10.4 |
| TATGTCAAAAAATAATGTACAAAAAAATTAACATAA [XGTACX_site5463] | 9.66 |
| TATATTTTTTTTCTAGTGCATATTATTAATTAAGTT | 9.62 |
| TGAGTATTTTTTTAATGTACTTATATTAAAAGGAAA [XGTACX_site6286] | 9.34 |
| TACAAAATAAGACATGCATGTTATACATATATATTT [TGCATGCA_site321] | 9.89 |
| AAAATATTATTTTGTTGTACATATAAAATTTTAAGC [XGTACX_site1866] | 9.63 |
| TTTATTTTGTAGTGTACACATATATATATATATATA [CACACA_site5843] | 9.76 |
| TATAAGAATGACAAGTGTACATATCAAATATATTAG [XGTACX_site7113] | 9.79 |
| TATTTTTTATATTTATTTATTTAAAGGAGCTTTTCT [GTGCAC_negctrl_site293] | 9.27 |
| TATACTAAAAAATACACATGCACATACAATATATAT [TGCATGCA_site1016] | 10.1 |
| AATATAAATTAATTTACACACTAAAAAATATTTATA [CACACA_site7728] | 9.59 |
| ACATACTTTAATATATGTACATAAGAAAAAAAAAAA [XGTACX_site2991] | 9.73 |
| TGTACATATATATATATAATAATAGTTATGTTTATT [CACACA_negctrl_site1474] | 9.64 |
| TTTTTTTATAGCTAAACACACATAAGAATATATGTT [CACACA_site1099] | 9.6 |
| AAAATAATATATAATTGTACTTTTTTTTTATATATA [XGTACX_site6093] | 9.51 |
| ATTATTACACAACGTTGTACATTTCAATATTTTTAT [XGTACX_site5096] | 9.95 |
| TTTTTTCTTAAAATTTGTACATAGTGCAATTTTTTT [XGTACX_site5509] | 9.54 |
| TTTCTTTTTTTTTAATGTACTTTTTTTATAAAAGGT [XGTACX_site5688] | 9.36 |

| Sequence | gcPBM binding intensity (ln) |
| --- | --- |
| TCCTCTTCAATATATATATATTATAAATAAATAAAT [CACACA_negctrl_site1756] | 9.15 |
| TTTGAATTTTTTAACACACACATGTGTGGATATATA [CACACA_site6872] | 9.88 |
| TATTAACACTTTATAGAAACAAAAAAATAAGCAAAA [XGTACX_negctrl_site295] | 9.54 |
| ATATATATAATAAACACACACATATACATATATGTA [CACACA_site3462] | 10.3 |
| AAGTTGTATATTGATTGTACTTGTTTAGGGTTATAG [XGTACX_site2953] | 9.84 |
| AGGTAAAATATACATTGTACATATAATTAATTTATT [XGTACX_site626] | 9.77 |
| TATATATATATAATGTGTACACAAATATATATTATA [XGTACX_site8786] | 9.65 |
| AAATTTATATAATATTGTACATTAAAAATTATATAT [XGTACX_site8009] | 9.42 |
| AGTATATATACACAAGGGGAATACATATACAAAATT [TGCATGCA_negctrl_site244] | 9.81 |
| TGGGTAATACATAATACACACATGTATATGTCGCAT [CACACA_site1125] | 9.93 |
| TTTTTAAAAAAGATAAGCGAAAGAATTAATTTTTAA [GTGCAC_negctrl_site197] | 9.35 |
| TATGTATAAATATATGCACACATATATATATTTATA [CACACA_site9150] | 9.72 |
| TGTTTATTTATTTGTGTGCACTCAGATTATATTATA [GTGCAC_site9510] | 10.1 |
| AAATCGTGCACGGACACATGCAGTAGCCGAGAATTA [TGCATGCA_site733] | 9.63 |
| TATTTTAATTTTTGTTGTACGCAAATGTGAGGGCAT [XGTACX_site4663] | 9.38 |
| TAAACCAAAAAAAGTAGTACAAATATTATAAAAAAA [XGTACX_site8497] | 9.74 |
| GATGTATTCATACATGCACACGTACATATTTAAATA [CACACA_site9299] | 9.79 |
| GTTCATAAATTAAACACACACACACGGCTGGATACC [CACACA_site7545] | 10.4 |
| AGGTAGAAAAAAGACACACACATTAGATATTTATAT [CACACA_site6313] | 10.6 |
| GTAAAACAGATTTACAGTACACATGTGTTATGTTTT [XGTACX_site2933] | 9.79 |
| TTTTTATATTTTATTATTTTTTTTATATAAAAAATT [CACACA_negctrl_site601] | 9.63 |
| ATAAAAATATTTGAATGTACTTATAAGATATATATA [XGTACX_site4257] | 9.55 |
| TTTATATATAAATAATGTACAAAAAATTTTAAAAAG [XGTACX_site7990] | 9.55 |

| Sequence | gcPBM binding intensity (ln) |
| --- | --- |
| CTTTATTTTTTATACACACACAATATGTATTTATAT [CACACA_site5879] | 10.2 |
| TCTATTTTTTATATGGTGCATTGTTCTTATTAATAT [GTGCAC_site9392] | 9.77 |
| AGGAAAAATAATTATTCACACAATAAATATATTTGA [CACACA_site5824] | 9.58 |
| AATTAATTTATGTTACGTACATAAGTATTATATTTT [XGTACX_site388] | 9.68 |
| GTTCAAATTATTATGTGTACTAAAGAATATTTTAAA [XGTACX_site3166] | 9.22 |
| TAAATACATCTATGCACACAAAAAAATATATATTTT [CACACA_site5027] | 9.83 |
| TGTATAAACTTTACGTGTACATGAATAATCTATAAT [XGTACX_site3801] | 9.54 |
| AAAATGGAACTAGGAATAATATAAGAAGATAAAAGG [XGTACX_negctrl_site347] | 9.7 |
| TTGTACAAAAATAATGCACACTATATCAAGTTTTTT [CACACA_site5898] | 9.64 |
| TTTATAAATTCTCTTTTTAAAAAATATTTTTATACT [CACACA_negctrl_site427] | 9.48 |
| AAAATAATTTTATAAGTGCAAAATAGCTTATTTATA | 9.48 |
| TAATCATTTTAGCTTACACACAAAATTTTGTTATAA [CACACA_site2939] | 9.75 |
| TATATATGTGTATAGAGTACACGTTTTTTTTAATAT [XGTACX_site3128] | 9.6 |
| AAAAACCTGAACTGTGCATGTCATACTTTTACTTTT [TGCATGCA_site73] | 9.87 |
| TATACGTATTACAGAGTGCAATAAACAGTATATATT | 9.8 |
| TTTATTAAAATATTCTCACACACCAAAATATGTATG [CACACA_site932] | 9.97 |
| ATAAAATAACACAACGTTGACAAATTTGGATGACTC [XGTACX_negctrl_site324] | 10.1 |
| ATATATGTAGATATATGTACATATATAGGTAGATAT [XGTACX_site7589] | 10.2 |
| AAGGAAAAGTAAAGAAGTACTGTACCGCCAAAAAAA [XGTACX_site2607] | 9.7 |
| AATTTATTTTTTTGATGTACATACAATTTATCACAA [XGTACX_site5936] | 9.71 |
